{"source": "PubChem BioAssay AID624417", "about": "(National Center for Advancing Translational Sciences (NCATS), 2012)", "note": "Out of some 410,000 compounds screened, about 6,400 (1.6%) were called active. The inconclusive results got no clear call from the source; some entries with a clear call stand among them for comparison. Calls come from the whole dose curve; as a rule, active = well fitted inhibition curve with a large enough effect; inconclusive = small, poorly fitted or top-dose-only effect; inactive = no such curve, though single readings can be large or run the other way. No potency is given beside an inconclusive call; the fits are too rough. % is set by controls: 0 for no effect and ±100 for the full control effect; potency is the fitted concentration of half-maximal effect; tags give direction and shape of the fitted curve."}
{"target": "Glucagon-like peptide 1 receptor (Homo sapiens) (UniProt P43220)", "sequence (P43220 whole entry, looked up)": "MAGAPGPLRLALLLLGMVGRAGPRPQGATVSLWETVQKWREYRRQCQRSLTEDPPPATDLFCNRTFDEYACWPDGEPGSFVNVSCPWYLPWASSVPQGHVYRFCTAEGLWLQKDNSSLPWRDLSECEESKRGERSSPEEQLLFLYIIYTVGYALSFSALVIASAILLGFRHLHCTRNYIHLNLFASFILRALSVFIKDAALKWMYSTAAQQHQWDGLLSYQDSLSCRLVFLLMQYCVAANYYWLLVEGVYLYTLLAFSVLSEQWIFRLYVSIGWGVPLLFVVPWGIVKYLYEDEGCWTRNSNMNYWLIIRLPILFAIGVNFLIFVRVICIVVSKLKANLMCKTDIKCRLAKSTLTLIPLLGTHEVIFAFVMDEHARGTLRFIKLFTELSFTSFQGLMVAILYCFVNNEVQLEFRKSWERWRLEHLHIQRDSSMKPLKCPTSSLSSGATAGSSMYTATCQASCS", "assay": "qHTS of GLP-1 Receptor Inverse Agonists (Inhibition Mode); note: nearly all actives have a fitted effect of over 55% in size", "conditions": "HEK293 GLP-1R CRE-luciferase, luminescence, 24 h, GLP-1R form is constitutively active; activity change, negative = inhibition: at 38.3 µM (top of the series) unless noted", "procedure,_shortened": "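Using stably transfected HEK293 (constitutively active GLP-1R, cAMP-luciferase reporter), compounds were incubated 24 hr and luciferase measured by luminescence.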"}
{"smiles": "O=C(NCc1ccco1)c1cc2sccc2n1Cc1ccccc1", "Potency": "inconclusive [inhibitor, single point]"}
{"smiles": "N=c1c2c(-c3ccccc3)c(-c3ccccc3)n(Cc3ccco3)c2ncn1CCN1CCOCC1", "Potency": "inconclusive [inhibitor, single point]"}
{"smiles": "O=c1[nH]c(N/N=C\\c2ccc3c(c2)OCO3)nc2ccccc12", "Potency": "inconclusive [inhibitor, single point]"}
{"smiles": "COc1ccc(-c2cnc3c(NC=O)cc(-c4ccccc4)cn23)cc1OC", "Potency": "inconclusive [inhibitor, full curve]"}
{"smiles": "CCN1C(=O)[C@H]2[C@@H](c3ccc(C(F)(F)F)cc3)N[C@]3(CCCN(Cc4ccc(C)cc4)C3=O)[C@H]2C1=O", "Potency": "inconclusive [inhibitor, single point]"}
{"smiles": "CCOC(=O)c1ccc(NC(=S)NCCc2ccccc2F)cc1", "Potency": "inconclusive [inhibitor, single point]"}
{"smiles": "Cc1onc(-c2ccccc2Cl)c1C(=O)OCC(=O)N1CCC(C)CC1", "Potency": "inconclusive [inhibitor, single point]"}
{"smiles": "CCN(CC)CCCNC(=O)c1cc(-c2ccc(Cl)c(Cl)c2)on1", "Potency": "active: 5.62 µM"}
{"smiles": "Cc1cc(C)c(OCC(=O)N2CC=C(c3ccccc3)CC2)c(C)c1", "Potency": "inconclusive [inhibitor, partial curve, poor fit]"}
{"smiles": "CSc1ccc(CCNC(=O)Cn2c(C)c3cnn(-c4ccccc4)c(=O)c3c2C)cc1", "activity change, negative = inhibition": "inactive: -5.06%"}
{"smiles": "COc1ccc2cc3cc(C(=O)NCCCN4CCC(C)CC4)oc3nc2c1", "activity change, negative = inhibition": "inactive: -9.86%"}
{"smiles": "COc1cccc(/C=C/c2nc(C#N)c(NC3CCCCC3)o2)c1", "activity change, negative = inhibition": "inactive: -13.9%"}
{"smiles": "Cc1cc(C)cc(OCCNC(=O)CCc2ccccc2)c1", "Potency": "inconclusive [inhibitor, single point]"}
{"smiles": "COc1ccc(Nc2ncnc3c2cnn3Cc2ccc(C)cc2)cc1", "Potency": "inconclusive [inhibitor, partial curve, poor fit]"}
{"smiles": "CC(=O)N1CCN(c2ccc(NC(=O)C(c3ccccc3)c3ccccc3)cc2)CC1", "Potency": "inconclusive [inhibitor, partial curve]"}
{"smiles": "Cc1cccc(-c2cc3nc(C)cc(NCCCN(C)C)n3n2)c1", "activity change, negative = inhibition": "inactive: 0%"}
{"smiles": "O=C(CN1C(=O)NC2(CCCc3ccccc32)C1=O)NCc1ccc(Cl)cc1Cl", "note": "(centres undefined)", "Potency": "inconclusive [inhibitor, single point]"}
{"smiles": "COc1cc(O)c(C(CCN2CCN(c3ccccc3)CC2)c2cc(OC)c(OC)c(OC)c2)c(OC)c1", "note": "(centres undefined)", "Potency": "inconclusive [inhibitor, partial curve, poor fit]"}
{"smiles": "CCN(C(=O)CN1C(=O)NC2(CCCC2)C1=O)c1nc2c(C)cccc2s1", "Potency": "inconclusive [inhibitor, single point]"}
{"smiles": "CCCCCCCCN1C(=O)[C@H](CC(=O)NCc2ccc(OC)c(OC)c2)C[C@@]2(C(=O)OC)CC(C)(C)CC=C12", "Potency": "inconclusive [inhibitor, partial curve, poor fit]"}
{"smiles": "CC1CCN(S(=O)(=O)c2cc(C(=O)N3CCN(c4cccc(Cl)c4)CC3)n(C)c2)CC1", "Potency": "inconclusive [inhibitor, partial curve, poor fit]"}
{"smiles": "Cc1sc2ncnc(SCC(=O)N3c4ccccc4Sc4ccc(Cl)cc43)c2c1C", "activity change, negative = inhibition": "inactive: -5.47%"}
{"smiles": "COc1ccc2c(c1)-c1nc(NC(=O)c3cccc(Br)c3)sc1CC2", "Potency": "inconclusive [inhibitor, single point]"}
{"smiles": "Cc1ccc2oc(C(=O)NCc3ncc(C)[nH]3)c(C)c2c1", "Potency": "inconclusive [inhibitor, partial curve, poor fit]"}
{"smiles": "O=C(Nc1ccc2c(c1)OCCO2)C(c1cc2ccccc2o1)N1CCC(Cc2ccccc2)CC1", "note": "(centres undefined)", "Potency": "inconclusive [inhibitor, partial curve, poor fit]"}
{"smiles": "O=C(N[C@@H](Cc1ccccc1)C(=O)NCCc1c[nH]c2ccccc12)c1ccco1", "Potency": "inconclusive [inhibitor, partial curve, poor fit]"}
{"smiles": "CCOC(=O)C1CCCN(C(=O)c2ccc(N(C)C)cc2)CC1", "note": "(centres undefined)", "activity change, negative = inhibition": "inactive: 18.7%"}
{"smiles": "O=C(CSC1=NS(=O)(=O)c2cc(Cl)ccc2N1)Nc1cccc(F)c1", "activity change, negative = inhibition": "inactive: -12.3%"}
{"smiles": "COC(=O)c1cc2c(ccn2-c2ccc(F)cc2)n1CC(C)C", "activity change, negative = inhibition": "inactive: -7.07%"}
{"smiles": "N#CC1(Nc2cccc(Br)c2)C(=O)Nc2ccccc21", "note": "(centres undefined)", "Potency": "inconclusive [inhibitor, single point]"}
{"smiles": "C[C@@H](C(=O)NCC1CC1)[C@H]1C[C@]1(C)[C@H](NC(=O)OCc1ccccc1)c1ccccc1", "activity change, negative = inhibition": "inactive: 0.657%"}
{"smiles": "O=C(CCCc1ccccn1)c1ccc(-c2ccccc2)cc1", "Potency": "inconclusive [inhibitor, single point]"}
{"smiles": "Cc1cc(C)c(OCCCNC2CCCC2)c(Br)c1", "Potency": "inconclusive [inhibitor, partial curve, poor fit]"}
{"smiles": "CN(C)C(CNc1ccc(S(C)(=O)=O)cc1[N+](=O)[O-])Cc1ccccc1", "note": "(centres undefined)", "Potency": "inconclusive [inhibitor, single point]"}
{"smiles": "Cc1cccc(OCC(=O)N2CCC(c3nc4ccccc4o3)CC2)c1C", "Potency": "inconclusive [inhibitor, single point]"}
{"smiles": "Cc1ccc(-c2csc(C(C)(O)c3ccc(F)c(F)c3)n2)cc1C", "note": "(centres undefined)", "Potency": "inconclusive [inhibitor, single point]"}
{"smiles": "CN(c1nnc(NC(=O)Nc2ccccc2C(F)(F)F)s1)C1CCCCC1", "Potency": "inconclusive [inhibitor, single point]"}
{"smiles": "COCCNC(=S)N(CCc1c(C)[nH]c2ccc(C)cc12)Cc1cc(OC)c(OC)c(OC)c1", "Potency": "inconclusive [inhibitor, partial curve, poor fit]"}
{"smiles": "C=C1CCN(C(C(=O)OC)C(C)C)S(=O)(=O)c2ccc(F)cc21", "note": "(centres undefined)", "Potency": "inconclusive [inhibitor, partial curve, poor fit]"}
{"smiles": "O=C(Nc1ccc(-c2cnco2)cc1)c1ccc(F)cc1F", "activity change, negative = inhibition": "inactive: 15.8%"}
{"smiles": "CCOC(=O)N1CCN(C(=O)c2oc(=O)c3ccccc3c2-c2ccc(C)cc2)CC1", "Potency": "inconclusive [inhibitor, single point]"}
{"smiles": "Cc1ccc(Cl)cc1NC(=O)C1CC1c1ccccc1", "note": "(centres undefined)", "Potency": "inconclusive [inhibitor, single point]"}
{"smiles": "Cc1ccnc(NS(=O)(=O)c2ccc(NC(=O)c3snnc3C)cc2)n1", "activity change, negative = inhibition": "inactive: 32.2%"}
{"smiles": "COc1ccc(-c2sc3ccccc3c2C#Cc2cncn2C)cc1", "Potency": "inconclusive [inhibitor, full curve, poor fit]"}
{"smiles": "CSC(=NS(=O)(=O)c1ccccc1)NNC(=O)c1c(-c2c(Cl)cccc2Cl)noc1C", "activity change, negative = inhibition": "inactive: -6.74%"}
{"smiles": "COc1cc(C)nc(-c2csc(C)n2)n1", "Potency": "inconclusive [inhibitor, single point]"}
{"smiles": "CC(C)(C)OC(=O)N1CCC(c2c(C(=O)N3CCN(C(=O)c4ccco4)CC3)cnn2-c2cccc(Cl)c2)CC1", "Potency": "inactive"}
{"smiles": "CC(=O)c1ccc(NC(=O)c2nc(-c3ccc(Cl)cc3)n3c2CCCCC3)cc1", "Potency": "inconclusive [inhibitor, partial curve, poor fit]"}
{"smiles": "CC[C@@]1(C(=O)OC)N[C@H](CN(C)C(=O)c2ccc(F)cc2)[C@@H]2C(=O)N(C)C(=O)[C@@H]21", "activity change, negative = inhibition": "inactive: 13.2%"}
{"smiles": "CC(C)c1ccc(C(C)NC(=S)NC2CCCCC2)cc1", "note": "(centres undefined)", "Potency": "inconclusive [inhibitor, partial curve, poor fit]"}
{"smiles": "CCOc1ccc(S(=O)(=O)N2CCN(c3ccc(C)cc3C)CC2)cc1", "Potency": "inconclusive [inhibitor, single point]"}
{"smiles": "O=C(Nc1ccccn1)c1ccc(Cl)s1", "activity change, negative = inhibition": "inactive: 6.17%"}
{"smiles": "O=C(/C=C/c1ccccc1[N+](=O)[O-])OCC(=O)N1CCN(c2ccccc2)CC1", "activity change, negative = inhibition": "inactive: 8.52%"}
{"smiles": "COc1ccc(S(=O)(=O)c2c(C(=O)c3ccc(C)c(C)c3)cnc3ccc(C)cc23)cc1", "Potency": "inconclusive [inhibitor, single point]"}
{"smiles": "O=C(N/N=C/c1cccc(O)c1)c1cc(-c2ccccc2)nc2ccccc12", "Potency": "inconclusive [inhibitor, single point]"}
{"smiles": "CCOc1ncccc1C(=O)N1CCN(c2cccc(C)c2C)CC1", "Potency": "inconclusive [inhibitor, partial curve, poor fit]"}
{"smiles": "COc1ccc(-c2csc3nc(C)n(-n4cccc4)c(=O)c23)cc1", "Potency": "inconclusive [inhibitor, full curve]"}
{"smiles": "O=C(CCCCCNC(=O)c1ccccc1)N/N=C/c1ccc(O)cc1O", "Potency": "inconclusive [inhibitor, single point]"}
{"smiles": "O=C(Cc1ccc(S(=O)(=O)N2CCCC2)s1)Nc1cccc([N+](=O)[O-])c1", "Potency": "inconclusive [inhibitor, partial curve, poor fit]"}
{"smiles": "Cc1c(C(=O)OC2CCC(C)CC2)[nH]c2c1C(=O)CC(c1ccc(N(C)C)cc1)C2", "note": "(centres undefined)", "Potency": "inconclusive [inhibitor, partial curve, poor fit]"}
{"smiles": "COc1ccc(CCNC(=O)C2(c3ccccc3)CC2)cc1", "Potency": "inconclusive [inhibitor, full curve, poor fit]"}
{"smiles": "Cc1ccc(CN2CCSc3ccc(C(=O)NCc4ccccn4)cc32)cc1", "Potency": "inconclusive [inhibitor, partial curve, poor fit]"}
{"smiles": "CC1CCc2c(sc(NS(=O)(=O)c3ccccc3)c2C(=O)OC(C)C)C1", "note": "(centres undefined)", "Potency": "inconclusive [inhibitor, single point]"}
{"smiles": "CCOc1ccc(/C=N/OCC(=O)Nc2ccc(OCc3ccccc3)cc2)cc1OC", "activity change, negative = inhibition": "inactive: -7.72%"}
